Results on three molecules are retold here after patent publication US20220213195A1 (SHANDONG BOAN BIOTECHNOLOGY, published 2022).

For orientation: Kd means a measure of binding affinity in units of concentration. As a reminder, the koff is the first-order rate constant of dissociation. Read a low koff as slow dissociation. The term kon denotes the second-order rate constant of association. Lower therefore signals slow association.

Assay [1] concerns the target T1, TGFβ1 (Sinobiological, catalog number: 10804-HNAC).
T1 construct: Bought recombinant protein; also called TGFβ1 protein
The assay is described as follows: ELISA, TGFβ1 coated at 0.2 µg/mL, fusion protein 1 µg/mL. A general note: In an ELISA, binding on a coated surface is turned into a signal by an enzyme label.

In assay [2] the target is T1, TGFβ1 (Sinobiological, catalog number: …). The assay is described as follows: ELISA, TGFβ1 coated at 0.05 µg/mL, fusion protein 1 µg/mL.
For assay [3] the target is unchanged. Put plainly: ELISA, TGFβ1 coated at 0.0125 µg/mL, fusion protein 1 µg/mL.
The target of assay [4] is T2, PDL1 protein (Sinobiological, catalog number: 10084-H08H).
T2 construct: Bought recombinant protein
The assay is described as follows: SPR (BIAcore 8K), fusion protein captured by anti-human IgG Fc, PDL1 as analyte 3.125-50 nM, 1:1 model.

Numbering of substitutions follows the chain as printed.

B1: PLTGBQ21-BA649-IgG1 (other)
heavy: EVQLVQSGGGVVQPGRSLRLSCAASGFTFSSYAMHWVRQAPGKGLEWVALISYDGSNKYYADSVKGRFTISRDNSKNTLYLQMNSLRAEDTAVYYCARDRIYFDYWGQGTLVTVSS[human IgG1 constant region not listed]GGGGSGGGGSGGGGSGGGGSGIPPHVQKSVNNDMIVTDNNGAVKFPQLCKFCDVRFSTCDNQKSCMSNCSITSICEKPQEVCVAVWRKNDENITLETVCHDPKLPYHDFILEDAASPKCIMKEKKKPGETFFMCSCSSDECNDNIIFSEEYNTSNPD
light: [about 200 residues not listed]
notes: Bifunctional fusion protein: anti-PDL1 IgG1 antibody with a TGFβRII fragment at the C-terminus of the heavy chain
B1: in assay [1], the OD450 amounted to 4.12 OD450. The molecule also had an OD450 in assay [2] of 2.14 OD450. Also, the OD450 in assay [3] was 0.636 OD450. In assay [4], this molecule had a Kd of 0.904 nM, a koff of 0.00167 s⁻¹ and an on-rate (kon) of 1.85e+06 M⁻¹ s⁻¹.

B2: PLTGBQ24-BA705-IgG1 (other)
heavy: B1 heavy with F27I, S31N
light: [about 200 residues not listed]
notes: as for B1
In assay [1], B2 yielded an OD450 of 4.04 OD450. Further, the OD450 in assay [2] came out at 2.18 OD450. For the same molecule, in assay [3], the OD450 was 0.836 OD450. Also, in assay [4], the dissociation constant (Kd) is 0.577 nM, the koff worked out at 0.000837 s⁻¹ and the kon stood at 1.45e+06 M⁻¹ s⁻¹.

B3: PLTGBQ19-BA533-IgG1 (other)
heavy: B1 heavy with S31N, L50I, S52T, D54A, K58E, A88P, Y102W, F103V
light: [about 200 residues not listed]
notes: as for B1
Molecule B3 registered an OD450 in assay [1] of 3.7 OD450. Also, the OD450 in assay [2] stood at 2.11 OD450. For the same molecule, the OD450 in assay [3] was determined as 0.758 OD450. Also, in assay [4], the dissociation constant Kd was 0.529 nM, the koff was 0.000795 s⁻¹ and the kon is 1.5e+06 M⁻¹ s⁻¹.
